What is called IC50 is the concentration needed to halve the response being measured.

Two compounds from PMC9594046, “Identification of Histone Peptide Binding Specificity and Small-Molecule Ligands for the TRIM33α and TRIM33β Bromodomains” (ACS Chemical Biology, 2022) can be followed below.

Common to all, as to assay: AlphaScreen dose-response displacement of biotinylated H3 peptide
On the technique in general: In Alpha technology, singlet oxygen from a donor bead excites a nearby acceptor bead.

The target in one experiment is T1, TRIM24 PHD-BRD (Homo sapiens, UniProt O15164).
T1 sequence (O15164 with tags, fused parts or gaps): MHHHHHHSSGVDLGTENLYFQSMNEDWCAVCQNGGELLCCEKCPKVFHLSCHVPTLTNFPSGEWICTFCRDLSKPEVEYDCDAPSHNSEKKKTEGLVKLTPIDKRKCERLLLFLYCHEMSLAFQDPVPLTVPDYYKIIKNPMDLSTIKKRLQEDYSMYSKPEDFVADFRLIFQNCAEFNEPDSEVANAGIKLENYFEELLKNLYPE

The next experiment addresses T2, TRIM33α PHD-BRD (Homo sapiens, UniProt Q9UPN9).
T2 sequence (Q9UPN9 888-1127): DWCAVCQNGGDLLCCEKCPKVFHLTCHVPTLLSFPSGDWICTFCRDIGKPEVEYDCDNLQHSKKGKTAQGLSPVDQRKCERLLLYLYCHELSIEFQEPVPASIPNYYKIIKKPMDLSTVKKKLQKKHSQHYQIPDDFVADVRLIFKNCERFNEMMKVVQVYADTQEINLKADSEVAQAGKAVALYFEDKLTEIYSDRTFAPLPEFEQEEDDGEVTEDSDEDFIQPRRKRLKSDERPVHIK

The target in a further experiment is T3, TRIM33β PHD-BRD (Homo sapiens, UniProt Q9UPN9).
T3 sequence (Q9UPN9 888-1110 isoform Q9UPN9-2 limits assumed): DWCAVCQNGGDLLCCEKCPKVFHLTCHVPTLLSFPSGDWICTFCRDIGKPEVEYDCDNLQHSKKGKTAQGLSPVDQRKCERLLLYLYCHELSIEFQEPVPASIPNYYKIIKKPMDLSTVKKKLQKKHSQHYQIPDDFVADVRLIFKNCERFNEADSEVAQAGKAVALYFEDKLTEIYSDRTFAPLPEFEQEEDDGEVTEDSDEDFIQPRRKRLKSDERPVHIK

Where [1] appears, read: peptide in assay H31-27K9Me3 (PHD).
Setting [2] is: peptide in assay H31-27K9Me3K18Ac (DUAL).
The mark [3] stands for this setting: peptide in assay H31-27K18Ac (BRD).

`Cn1c(=O)n(C)c2cc(CNCCc3ccc(S(N)(=O)=O)cc3)ccc21` [Compound 8]: the IC50 on TRIM24 PHD-BRD (setting [1]) is above 250 µM; at TRIM24 PHD-BRD (setting [2]) it was above 250 µM; on TRIM24 PHD-BRD (setting [3]), 103 ± 1.23 µM; on TRIM33α PHD-BRD (setting [1]) it was above 250 µM; on TRIM33α PHD-BRD (setting [2]), 14.1 ± 1.62 µM; on TRIM33α PHD-BRD (setting [3]), 2.79 ± 0.83 µM. The IC50 on TRIM33β PHD-BRD (setting [1]) was above 250 µM; on TRIM33β PHD-BRD (setting [2]), 126 ± 2.23 µM.
Turning to `O=C(CN1CCOC(c2cncc(-c3cccc(F)c3)n2)C1)NCc1ccccn1` (centres unmarked) [Compound 9], the half-maximal inhibitory concentration (IC50) on TRIM24 PHD-BRD (setting [1]) came to 41.8 ± 5.11 µM; at TRIM24 PHD-BRD (setting [2]), 62.2 ± 4.15 µM; at TRIM24 PHD-BRD (setting [3]), 41.7 ± 7.82 µM; at TRIM33α PHD-BRD (setting [1]), 43.2 ± 5.67 µM; on TRIM33α PHD-BRD (setting [2]) it was 56.5 ± 10.3 µM; on TRIM33α PHD-BRD (setting [3]), 51.8 ± 3.87 µM. The IC50 at TRIM33β PHD-BRD (setting [1]) worked out at 78.6 ± 9.72 µM; on TRIM33β PHD-BRD (setting [2]) it was 111 ± 13.5 µM; at TRIM33β PHD-BRD (setting [3]) it was 59.4 ± 5.73 µM.
